# Results as given in the supplement of paper PMC3334620.
# In all, about 33,000 sequences were measured (“E-score (-0.5 to 0.5)”: median about -0.021, highest 2% from about 0.32 on). The list shows a part of the results.
# Molecular target: T1, Zap1 (UniProt P47043)
# T1 sequence: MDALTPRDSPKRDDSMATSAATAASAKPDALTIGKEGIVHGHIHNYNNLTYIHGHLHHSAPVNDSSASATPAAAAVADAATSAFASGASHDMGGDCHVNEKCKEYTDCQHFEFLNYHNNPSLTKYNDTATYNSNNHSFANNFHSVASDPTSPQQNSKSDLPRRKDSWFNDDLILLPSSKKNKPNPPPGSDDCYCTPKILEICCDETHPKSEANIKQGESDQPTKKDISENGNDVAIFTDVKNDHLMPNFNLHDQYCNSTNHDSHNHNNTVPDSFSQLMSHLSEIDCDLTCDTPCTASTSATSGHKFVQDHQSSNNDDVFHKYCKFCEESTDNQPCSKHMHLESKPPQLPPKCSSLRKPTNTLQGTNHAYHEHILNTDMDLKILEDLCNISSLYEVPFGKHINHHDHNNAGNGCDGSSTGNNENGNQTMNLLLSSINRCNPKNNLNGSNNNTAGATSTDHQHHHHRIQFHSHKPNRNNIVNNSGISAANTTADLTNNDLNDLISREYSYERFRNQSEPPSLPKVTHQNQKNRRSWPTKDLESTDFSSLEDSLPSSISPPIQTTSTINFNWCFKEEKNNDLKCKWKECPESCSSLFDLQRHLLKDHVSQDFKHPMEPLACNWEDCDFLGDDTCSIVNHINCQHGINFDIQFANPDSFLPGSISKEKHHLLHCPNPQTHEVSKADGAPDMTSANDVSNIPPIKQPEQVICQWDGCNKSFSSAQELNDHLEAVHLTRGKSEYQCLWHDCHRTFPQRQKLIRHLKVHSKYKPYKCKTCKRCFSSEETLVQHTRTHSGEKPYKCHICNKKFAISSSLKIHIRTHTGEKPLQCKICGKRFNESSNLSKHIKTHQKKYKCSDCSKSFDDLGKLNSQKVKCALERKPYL
# Test: PBM E-score (8-mer binding enrichment) (E-score (-0.5 to 0.5)); higher = stronger / more preferred TF binding; most listed sequences are background and not binding sites
# Conditions: protein concentration: 200 nM; construct: GST-full length
# Protocol: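 Universal 'all 10-mer' protein binding microarrays (Agilent AMADID 015681) probed with GST-tagged S. cerevisiae TFs (full-length or DBD) made by in vitro transcription/translation (PURExpress), about 100-200 nM. Bound TF was detected with fluorescent anti-GST. Each ungapped 8-mer (which stands for itself and its reverse complement) is scored by the PBM enrichment score (E-score), a modified Wilcoxon-Mann-Whitney statistic from -0.5 to +0.5, computed with the Universal PBM Analysis Suite. Scale: above 0.35 generally sequence-specific binding.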
row,Sequence,PBM E-score
1,CTCAAACA,0.129
2,ACGACAAC,0.04
3,ATGTGAAC,-0.0742
4,AGCGCTTA,-0.0924
5,TAAATTAA,0.177
6,ATTGCACC,0.0965
7,CCTTGATA,0.199
8,ATATTAAT,0.0943
9,GGCGCTTA,-0.289
10,ATCTAGCA,-0.0478
11,CACCATTA,0.037
12,ACTGCTTA,-0.14
13,CATCTCGG,0.0732
14,ATATGACG,-0.122
15,ACCACAGA,0.173
16,AAATCGTC,-0.148
17,AGAGCCAG,-0.335
18,AACCACCA,0.273
19,AACGCTTC,-0.128
20,CTAAAGAA,0.115
21,ACCGCGGG,0.291
22,AGCCGCAT,-0.179

row,Sequence,PBM E-score
1,ACATACTA,0.0795
2,CTCTAGAC,-0.212
3,ATGAAAAG,-0.0902
4,CAGAAATA,0.144
5,AACGGCAC,-0.184
6,CTCCGAAG,-0.0454
7,GAGCTCGA,-0.0262
8,ATGCCCTC,-0.214
9,CTACAGAA,0.11
10,CCTTTGTC,0.0506
11,ATCATCGC,-0.0946
12,CCCTTGTA,-0.0158
13,GTGATTTA,0.193
14,TAGGCACA,-0.0742
15,CAGAGATC,-0.134
16,TCCGGGAA,0.0362
17,AATTTTTG,0.178
18,AATCGTGG,0.0842
19,CCCTCACG,0.13
20,AAAAGGAG,-0.254
21,GGGTTGAC,0.131
22,GCATGCCC,-0.119

row,Sequence,PBM E-score
1,ATCCAGTA,-0.0817
2,AGACGACG,-0.226
3,TGAGGACA,0.0682
4,AAGCACGG,-0.11
5,AAGTCAAA,0.173
6,GCTCGCAC,-0.205
7,CGGCCGGA,0.03
8,TCTAACCA,0.231
9,CCTACAGC,-0.105
10,AAACATTA,-0.0997
11,CCCACAGG,0.0454
12,CCGCTTAG,-0.184
13,TACGCATA,-0.0829
14,TATCGAAA,0.242
15,CTTGTCGC,-0.063
16,ACTGAGAT,-0.201
17,AACTAAAG,0.212
18,AGGGAACA,-0.152
19,AAATATGG,0.0312
20,CTTGGGCC,-0.0386
21,ATCAAGGG,0.161
22,GTATCAAC,0.0391

row,Sequence,PBM E-score
1,CAGGATTA,-0.0924
2,CGAGCACC,-0.0114
3,ACGACGAT,0.0497
4,CAGAGATG,-0.0673
5,CATCTTCA,-0.148
6,CCTGACTC,0.0283
7,GCCCATCA,-0.0776
8,AGACCTTC,0.184
9,AACTGAAA,0.139
10,CCCAAGAC,-0.045
11,CTCTCGCA,-0.105
12,GCGCCCGC,-0.234
13,GCGATCCC,-0.0725
14,TCAATTGA,0.00911
15,GCAAGAAC,0.0646
16,CATCGGTC,0.0918
17,CCAGCGCG,0.00858
18,TATACGAA,0.0189
19,GGCCAACC,-0.0222
20,ACACTCCT,-0.0481
